Results as given in the RNAGym collection of RNA variant scans (doi:10.1093/nar/gkz1192).
The source gives no read counts; variants with many changes may rest on few reads.

B1: CPEB3 Ribozyme (parent)
chain: UAACAGGGGGCCACAGCAGAAGCGUUCACGUCGCAGCCCCUGUCAGAUUCUGGUGAAUCUGCGAAUUCUGCUGUAUAUCUC

Variants of: B1
Assay: self-cleavage, relative activity (ratio to wild type); higher = more cleavage; in vitro, sequencing
Summary of the method: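 Relative activity compares each variant's cleaved/total read fraction with that of the unmutated ribozyme. To get these fractions, barcoded CPEB3 ribozyme libraries from rounds of error-prone PCR were transcribed with T7 RNA polymerase for 5 hours at 37°C and then given 15 min of DNase I treatment before EDTA was added. The RNAs were reverse transcribed with template switching and sequenced on Illumina, and DNA sequencing linked barcodes to variants. A minimum of 5 reads applied, and three batches were averaged.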

Variant	self-cleavage
AAACAGGGGGCCUCAGCAGAAGCGAUCACGUCGCAGCCCCUGUCAGUUUCGGGUGAAUCUGCGAAUUCUGCUGUAUAUCUC [U1A A13U U25A A47U U51G]	0.09
AAACAGGGGGCCUCAGCAGAAGCGUUCACGUCGCAGCCCCUGUCAGAUUCUGGCGAAUCUGCGAAUUCCGCUGUAUAUCUC [U1A A13U U54C U69C]	0.48
AAACAGGGGGCCUCAGCAGAAGCGUUCACGUCGCAGCCCCUGUCAGAUUCUGGUGAAUCCGCGAAUUCUGCUGUAGAUCCC [U1A A13U U60C U76G U80C]	0.6
AAACAGGGGGCCACCGCAGAAGCGUUCACGUCGCAGCCCCUGUCAGGUUCUGGUGAUUCCGCGAAUUCUGCUGUUUAUCUC [U1A A15C A47G A57U U60C A75U]	0.09
AAACAGGGGGCCACCGCAGAAGCGUUCACGUCGCAGCCCCCGUCAGAUUCUGGUGAAUCUGCGAAUCCUGCUGUAUAUCUC [U1A A15C U41C U67C]	0.29
AAACAGGGGGCCACGGCGGAAGCGUUCACGUCGCAGCCCCUGUCAGAUUCUGUUGAAUCUGCGAAUUCUGCUGUAUAUCUC [U1A A15G A18G G53U]	0.12
AAACAGGGGGCCACGGCAGGAGCGUUCACGUCGCGGCCCCUGUCAGAUUCUGGUGAAUCUGCGAAUUCUGCUGUUUAUCUC [U1A A15G A20G A35G A75U]	0.67
AAACAGGGGGCCACGGCAGAAGCGUUCACGUCGCGGCCCCGGUCAGAUUCUGGAGAAUCUGCGAAUCCUGCUGUAUAUCCC [U1A A15G A35G U41G U54A U67C U80C]	0.14
AAACAGGGGGCCACGGCAGAAGCGUUCACGUCGCAGCCCCUGUCGGAUUCUGGUGAGUCUGCGAAUUCUGCUGUAUACCCC [U1A A15G A45G A57G U78C U80C]	0.58
AAACAGGGGGCCACGGCAGAAGCGUCCACGUCGCAGCACCUGUCAGAUUCUGGUGAGGCUGCGAAUUCAGCUGUAUAUCUC [U1A A15G U26C C38A A57G U58G U69A]	0.07
AAACAGGGGGCCACGGCAGAAGCGUCCACGUCGCAGCCCCUGUCAGAUUCUGGUGAAUCUGCGAAUUCAGCUGUAUAUCUC [U1A A15G U26C U69A]	0.18
AAACAGGGGGCCACGGCAGAAGCGUUCACGUCGCAGCCCCUGCCAGAUUCUGGUGAAUCUGCGGAUUCUGCUGUAUAUCUC [U1A A15G U43C A64G]	0.25
AAACAGGGGGCCACUGCAGAAGCGUACACGUCGCAGCCCCUGUCAGAUUCUGGUGAAUCUGCGAAUUCUGCAAUAUAUCUC [U1A A15U U26A U72A G73A]	1.14
AAACAGGGGGCCACUGCAGAAGCGUUCACGUCGCAGCCCCUGCCAGAUUCUGGUGAAUCUGCGAAUUCUGCUGCGUAUCUC [U1A A15U U43C U74C A75G]	0.81
AAACAGGGGGCCACUGCAGAAGCGUUCACGUCGCAGCCCCUGUCAGAUUCUGGUGAAACUGCGAAUUCUGCUGUAUAUCUC [U1A A15U U58A]	0.24
AAACAGGGGGCCACAGCGGAAGCGUUCAAGUCGCAGCCCCUGUCAGAUUCUGGUGAAUCUGCGAAUUCUGCUGUAUAUCUC [U1A A18G C29A]	0.31
AAACAGGGGGCCACAGCGGAAGCGUUCACGUCGCAGCCCCUGUCAGAUCCUGGUGAACCUGCGAAUUCUGCUGUAUAUCUC [U1A A18G U49C U58C]	0.11

Variant	self-cleavage
AAACAGGGGGCCACAGCGGAAGCGUUCACGUCGCAGCCCCUGUCAGAUUCUGGCGAAUCUGCGAAUUCUGCUGUAUAUCUC [U1A A18G U54C]	0.77
AAACAGGGGGCCACAGCUGAAGCGUUCACGUCGCGGCCCCCGUCAGAUCCUGGUGAAUCUGCGAAUUCUGCUGUAUAUCUC [U1A A18U A35G U41C U49C]	0.35
AAACAGGGGGCCACAGCUGAACCGCUCACGUCGCAGCCCCUGUCAGAUUCUGGUGAAUCUGCAAAUUCUGCUGUAUAUCUC [U1A A18U G22C U25C G63A]	0.07
AAACAGGGGGCCACAGCUGAAGCGUACACGUCGCAGCCCCUGUCAGAUUCUGGUGAAUCUGCGGAUUCUGCUGUAUAUCUC [U1A A18U U26A A64G]	0.14
AAACAGGGGGCCACAGCUGAAGCGUUCACGUCGCAGCCCCUGUCAGAUGCUGGUGAAUCUGCGAAUUCUGCUGUAUAUCUC [U1A A18U U49G]	0.16
AAACAGGGGGCCACAGCAGGAGCGUUCACGACGCAGCCCCUGCCAGAUUCUGGCGAAUCUGCGAAUUCUGCCGUAUAUCUC [U1A A20G U31A U43C U54C U72C]	0.08
AAACAGGGGGCCACAGCAGGAGCGUUCACGUCGCAGCCCCUGUCAGACUCUGGUGAAUCCGCGUAUUCUGCUGUAUAUCUC [U1A A20G U48C U60C A64U]	0.11
AAACAGGGGGCCACAGCAGUAGCGUUCACGUCGCAGCCCCUGUCAGGUUCUGGUGAAUCUGCGGAUUCUGCUGUGUAUCUC [U1A A20U A47G A64G A75G]	0.16
AAACAGGGGGCCACAGCAGAGGCGAUCACGUUGCAGCCCAUGUCAUAUUCUGGUGAAUCUGCGAAUUCUGCUGUAUAUCUC [U1A A21G U25A C32U C40A G46U]	0.06
AAACAGGGGGCCACAGCAGAGGCGUUCACGUCGCAGCCCCUGACAGACUCUGGUGAAUCUGCGAAUUCUGCUGUAUAUCCC [U1A A21G U43A U48C U80C]	0.32
AAACAGGGGGCCACAGCAGAGGCGUUCACGUCGCAGCCCCUGUCAGAUUCUGGUGAAUCUGCGAAUUCAGCUGUAUAUCUC [U1A A21G U69A]	0.39
AAACAGGGGGCCACAGCAGAAGCGUUCUCGUCGCAGCCCCUGCCAGAUUCUUGUGAUUCUGCGAAUUCUGCCGUAUAUCUC [U1A A28U U43C G52U A57U U72C]	0.16
AAACAGGGGGCCACAGCAGAAGCGUUCACGUCGCGGCCCCUGCCGGACCCGGGUGAAUCUGCGAAUUCUGCUGUAUAUCUC [U1A A35G U43C A45G U48C U49C U51G]	0.38
AAACAGGGGGCCACAGCAGAAGCGUUCACGUCGCGGCCCCUGUCAGAUUCUGGUGAACCUGCGAAUUCUGCUGUAUAUCUC [U1A A35G U58C]	1.04
AAACAGGGGGCCACAGCAGAAGCGUUCACGUCGCGGCCCCUGUCAGAUUCUGGUGAAUCUGCGAAUCCUGCUGUAUAUCUC [U1A A35G U67C]	0.78
AAACAGGGGGCCACAGCAGAAGCGUUCACGUCGCUGCCCCUGUCAGAUUCUGGUGAAUCUGCGACUUCUGCUGUAUAUCUC [U1A A35U A65C]	0.12
AAACAGGGGGCCACAGCAGAAGCGUUCACGUCGCUGCCCCUGUCAGAUUCUGGCGAAUCUGCGAAUUCUGCUGUAUAUAUC [U1A A35U U54C C79A]	0.51
